# Reference: paper PMC4336329 (PLoS ONE, 2015)
# Screen size: about 310,000 compounds; about 2,200 (0.71%) showed an effect of 50% or more. The effect is printed as a negative number. Some of the results follow.
# Target: human ether-à-go-go-related gene (hERG) potassium channel (human, UniProt Q12809)
# Assay: primary screen, population patch clamp on CHO cells stably expressing hERG
# Sequence of human ether-à-go-go-related gene (hERG) potassium channel (Q12809 whole entry, looked up): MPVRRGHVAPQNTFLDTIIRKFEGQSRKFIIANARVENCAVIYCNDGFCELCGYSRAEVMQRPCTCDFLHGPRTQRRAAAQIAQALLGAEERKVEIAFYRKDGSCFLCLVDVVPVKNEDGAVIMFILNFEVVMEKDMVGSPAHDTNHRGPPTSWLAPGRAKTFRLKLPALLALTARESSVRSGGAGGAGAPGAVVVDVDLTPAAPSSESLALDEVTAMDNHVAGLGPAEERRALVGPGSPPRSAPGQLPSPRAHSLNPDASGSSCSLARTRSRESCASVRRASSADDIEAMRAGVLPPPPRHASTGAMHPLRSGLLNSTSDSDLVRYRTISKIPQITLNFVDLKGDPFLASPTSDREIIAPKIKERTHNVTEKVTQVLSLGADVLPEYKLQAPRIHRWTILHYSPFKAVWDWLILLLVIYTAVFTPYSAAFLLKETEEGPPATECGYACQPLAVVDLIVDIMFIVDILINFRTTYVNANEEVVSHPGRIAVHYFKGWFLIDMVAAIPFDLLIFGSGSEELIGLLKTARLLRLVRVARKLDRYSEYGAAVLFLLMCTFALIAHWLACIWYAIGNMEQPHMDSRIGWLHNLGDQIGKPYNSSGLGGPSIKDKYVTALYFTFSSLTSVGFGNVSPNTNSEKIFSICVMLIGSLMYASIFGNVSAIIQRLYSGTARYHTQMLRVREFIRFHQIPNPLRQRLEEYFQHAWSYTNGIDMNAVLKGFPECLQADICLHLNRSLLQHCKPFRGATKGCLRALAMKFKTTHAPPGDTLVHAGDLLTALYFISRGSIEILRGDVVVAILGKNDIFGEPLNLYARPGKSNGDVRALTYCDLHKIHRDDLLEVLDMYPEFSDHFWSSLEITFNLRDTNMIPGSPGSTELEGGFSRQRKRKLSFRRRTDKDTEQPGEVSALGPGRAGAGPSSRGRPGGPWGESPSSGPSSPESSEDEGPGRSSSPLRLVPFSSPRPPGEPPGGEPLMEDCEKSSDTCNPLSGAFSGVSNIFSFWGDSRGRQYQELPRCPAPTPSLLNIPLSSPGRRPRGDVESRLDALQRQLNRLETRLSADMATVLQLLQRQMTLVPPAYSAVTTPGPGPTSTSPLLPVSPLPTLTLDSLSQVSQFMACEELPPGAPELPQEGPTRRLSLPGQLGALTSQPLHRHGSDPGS
row,SMILES,"hERG current change (%, negative = inhibition) at 1uM [%]"
1,COc1cc(/C=N\NC(=O)c2ccc(-c3ccccc3)cc2)ccc1OCC(N)=O,16.1
2,O=C(Nc1ccc2c(c1)oc1ccccc12)c1ccc2c(c1)OCO2,9.05
3,C/C(=N\NC(=O)c1cc(C)nc2ccc(C)cc12)c1ccncc1,14.8
4,COc1ccc(N=C2SC(C(=O)N3CCN(c4ccccc4)CC3)CC(=O)N2C)cc1 (centres unmarked),11.8
5,Cn1nnc(NC(=O)/C=C/c2ccco2)n1,11.7
6,N#C/C(=C/c1ccc(CNS(=O)(=O)c2ccccc2)o1)C(N)=O,11.6
7,CCOC(=O)C1CSC(CC(=O)Nc2ccc(Cl)c(Cl)c2)C(=O)N1 (centres unmarked),-8.9
8,COc1cccc(CNC(=O)N2CCN(c3ccccc3)CC2)c1,7.85
9,Cc1ccc2cc(C#N)c(N3CCCN(C(=S)NCCCN(C)C)CC3)nc2c1,10.6
10,CN(C)CCCOc1cccc(Cl)c1.O=C(O)C(=O)O,10.9
11,CC(C)c1ccc(NC(=O)N2C[C@H]3C[C@@H](C2)c2cccc(=O)n2C3)cc1,7.81
12,COCCN(C(=O)C1CCCO1)c1c(N)n(CC(C)C)c(=O)[nH]c1=O (centres unmarked),7.05
13,CCC(C)NC(=O)CSc1nc2scc(-c3ccccc3)c2c(=O)[nH]1 (centres unmarked),-4.12
14,Cl.N#CCCN(/N=C/c1cccnc1)C1=NS(=O)(=O)c2ccccc21,12.2
15,COC(=O)c1sccc1S(=O)(=O)NCc1ccc(S(N)(=O)=O)cc1,5.9
16,C[C@H](NC(=O)OC(C)(C)C)c1nnc(SCC(N)=O)o1,2.34
17,C1CCC(NC2CCCCC2)CC1,11.6
18,Cc1ccc(OCC(=O)Nc2ccc(S(=O)(=O)Nc3ccccn3)cc2)c(C)c1,12.6
19,CCOC(=O)c1c(CSc2nc(C)cc(C)c2C#N)n(C)c2cc(Br)c(OC(C)=O)cc12,1.1
20,Cc1cccc(NC(=O)CCN2CCCCC2)c1.Cl,5.95
21,O=C(O)CS(=O)(=O)CC(=O)O,12.5
22,CCOC(=O)c1c(NC(C)=O)sc2c(O)c(Br)ccc12,8.63
23,O=C(CSc1nccc(=O)[nH]1)N1CCN(c2ccccc2)CC1,16.1

row,SMILES,"hERG current change (%, negative = inhibition) at 1uM [%]"
1,CCOC(=O)CSc1nnc(NC(=O)c2cc([N+](=O)[O-])cc([N+](=O)[O-])c2)s1,-6.84
2,Cc1ccc(C(=O)N/C(=C/c2ccco2)C(=O)Nc2cccc(C)c2)cc1,8.34
3,O=C(N[C@@H](Cc1ccc(O)cc1)C(=O)O)c1ccc(C(F)(F)F)cc1,18.3
4,C=C1CCN([C@H](C(=O)NCc2ccc(Cl)cc2)C(C)C)S(=O)(=O)c2ccccc21,-3.97
5,COc1cccc(C2CC(C(F)(F)F)n3ncc(C(=O)O)c3N2)c1 (centres unmarked),9.97
6,Cc1ccnc(SC2CC(=O)N(c3ccc(C(C)C)cc3)C2=O)n1 (centres unmarked),14.7
7,COc1cccc(C(=O)NCCNC(=O)c2ccco2)c1.O=C(O)C(=O)O,15.7
8,Cc1cc(C)nc(NS(=O)(=O)c2ccc(NC(=O)c3ccco3)cc2)n1,-1.81
9,COc1ccc(CCC(C)Nc2cccc(F)c2)cc1 (centres unmarked),-7.4
10,Cc1nnc(NC(=O)CSCc2c(C)noc2C)s1,-1.84
11,O=C(Cn1cc(C(F)(F)F)ccc1=O)N1CCN(S(=O)(=O)c2ccc(Cl)cc2)CC1,6.21
12,Cl.NCCCC(=O)N1c2ccccc2Sc2ccccc21,0.002
13,O=C(NNC(=O)c1sccc1-n1cccc1)c1ccc(F)cc1,-19.6
14,COc1ccc(N(C(=O)COc2ccccc2OC)S(=O)(=O)c2ccc(C)cc2)cc1,13.5
15,COc1ccc(C(=O)NNc2ccccc2)cc1,4.65
16,C[C@]12CCC(=O)C[C@@H]1CC[C@@H]1[C@@H]2CC[C@]2(C)[C@@H](C(=O)COC(=O)CCC(=O)O)CC[C@@H]12,15
17,CCC1=C(OC(=O)c2ccccc2)C(C)(C)C(c2ccccc2)OC1=O (centres unmarked),7.81
18,O=[N+]([O-])c1cc2c(cc1Br)CCN2,6.25
19,O=C1c2oc3ccccc3c(=O)c2C(c2cccnc2)N1CCCN1CCOCC1 (centres unmarked),4.59
20,Brc1ccccc1-c1ccccc1,15.3
21,Cc1c(N2C(=O)c3ccc(F)cc3C2=O)c(=O)n(-c2ccccc2)n1C,12.5
22,CCOC(=O)CN1C(=O)N(CC(=O)OCC)C(c2ccccc2)(c2ccccc2)C1=O,6.45
23,CC1CC(C)CN(CC(=O)N2CCCc3c2c(=O)oc2ccc(OCc4ccccc4)cc32)C1 (centres unmarked),9.29

row,SMILES,"hERG current change (%, negative = inhibition) at 1uM [%]"
1,Nc1c(S(=O)(=O)c2cccs2)c2nc3ccccc3nc2n1Cc1cccs1,5.38
2,c1ccc(-n2nnnc2NCCc2c[nH]c3ccccc23)cc1,5.44
3,CN(C)CCSc1nc(-c2ccccc2)nc2c1CCC2,-16.4
4,Cc1ccc(-c2csc(N(CCCN3CCOCC3)C(=O)c3ccco3)n2)cc1.Cl,-4.11
5,CC(=O)Nc1ccc(S(=O)(=O)N2CCC(=O)Nc3ccccc32)cc1,20.6
6,COC(=O)c1nn(-c2ccc3c(c2)OCO3)cc1O,2.4
7,Cc1ccc(NC(=O)C2CCCN(S(=O)(=O)c3cccnc3)C2)c(C)c1 (centres unmarked),17.1
8,Cc1cc(C)c2c(=O)[nH]c(SCC(=O)N(C)C)nc2n1,5.22
9,CCn1c(SCC(=O)c2ccc(NS(=O)(=O)c3ccccc3)cc2)nnc1-c1cccs1,0.643
10,COc1cc(O)c(C(C)=O)cc1OC,14.1
11,O=C(CCCOc1ccccc1)NCC1CCCO1 (centres unmarked),11.9
12,CCOC(=O)Cc1csc(SCC(=O)Nc2ccc3[nH]c(=O)[nH]c3c2)n1,0.0859
13,CCN1CCN(Cc2ccc(NC(=O)c3ccc(C)c(NC(=O)c4cccc5[nH]ccc45)c3)cc2C(F)(F)F)CC1,14.5
14,CC1(C)Cc2nc3sc4c(OCc5ccccc5)ncnc4c3cc2CO1,5.06
15,Cc1c(C(=O)NC2CCCC2)oc2ccccc12,-1.32
16,CN(C)CCNC(=O)c1cc2c(=O)n(C)c3ccccc3c2n1C,6.72
17,O=C1N(CN2C(=O)C3(OCCO3)c3ccccc32)c2ccccc2C12OCCO2,13.5
18,COc1cccc(C2=CC(=O)C[C@H](c3ccc(Cl)cc3)C2)c1,13.6
19,O=C(CSc1nnc(Cc2ccccc2)o1)Nc1ccc2c(c1)OCO2,8.1
20,CC(NC(=O)CSc1ccccc1C(=O)O)C1CC2CCC1C2 (centres unmarked),13.7
21,CCCc1cc(NC(=O)CCl)n(-c2ccccc2)n1,-0.734
22,COc1c(N2CCNC(C)C2)c(F)cc2c(=O)c(C(=O)O)cn(C3CC3)c12 (centres unmarked),7.71
23,COc1ccc(-c2nc(CS(=O)CC(=O)NC3CCC(C)CC3)c(C)o2)cc1OC (centres unmarked),4.54

row,SMILES,"hERG current change (%, negative = inhibition) at 1uM [%]"
1,COc1ccc(N(C)C(=O)c2ccc3snnc3c2)cc1,12.1
2,CCOC(=O)C1CCN(C(=O)C2(NC(=O)Nc3cccc(F)c3)CCCCC2)CC1,11.4
3,CCCCN1C(=S)SC(C)(C)C1/[N+]([O-])=C/c1cccnc1 (centres unmarked),7.89
4,Cc1ccccc1NC(=O)CSc1n[nH]c(-c2ccco2)n1,7.33
5,CCOP(=O)(OCC)c1ccc(OP(=O)(c2cccc([N+](=O)[O-])c2)c2cccc([N+](=O)[O-])c2)cc1,13.2
6,CCc1cc2c(SCC(=O)N(C)C3CCS(=O)(=O)C3)ncnc2s1 (centres unmarked),-7.21
7,CC/C(=N\NC(=O)C(N)=O)c1ccccc1O,9.22
8,Cc1ccc(C(CC(=O)N2CCNCC2)c2ccccc2)c(O)c1C (centres unmarked),-11.5
9,COc1ccc(CCNC(=O)CSC2=NS(=O)(=O)c3cc(Cl)ccc3N2)cc1OC,15.5
10,CC(=O)Nc1ccc(NC(=O)C(C)Sc2n[nH]c(=O)n2Cc2ccccc2)cc1 (centres unmarked),11.9
11,Cc1ccc(-n2c(SCC(=O)N(C)C3CCS(=O)(=O)C3)nc3ccccc3c2=O)cc1 (centres unmarked),15.6
12,Cc1ccc(C2C(C#N)=C(N)Oc3n[nH]c(-c4cccs4)c32)s1 (centres unmarked),18.8
13,N#Cc1ccc(C(=O)N2CCN(S(=O)(=O)c3ccc(Cl)s3)CC2)cc1,-11
14,COC(=O)c1ccc(NC(=O)NC2CCCCC2)cc1,11.3
15,COc1ccc(/C=C/C(=O)OCC(=O)Nc2cc(C(N)=O)cc(C(N)=O)c2)cc1,18.9
16,CCOc1ccc(C2Sc3ccccc3NC3=C2C(=O)OC3)cc1 (centres unmarked),-2.14
17,Cc1ccc(C)c(NC(=O)C(CC(=O)O)C2CCCO2)c1 (centres unmarked),12.1
18,O=C(Cn1ncc2c3ccccc3n(Cc3ccccc3F)c2c1=O)NCCCN1CCCC1=O,7.16
19,Cc1ccnc(NC(=O)c2cc3ccccc3o2)c1,-6.74
20,Cc1ccc(Cl)cc1NC(=O)COC(=O)c1ccc(CN2CCCC2=O)cc1,6.48
